# Reference: PubChem BioAssay AID504832 (National Center for Advancing Translational Sciences (NCATS), 2011)
# The campaign covered roughly 310,000 compounds. About 18,000 (5.8%) were called active. The shares of active, inactive and inconclusive entries below differ from those in the screen. Calls come from the whole dose curve; as a rule, active = well fitted inhibition curve with a large enough effect; inconclusive = small, poorly fitted or top-dose-only effect, or another doubt; inactive = no such curve, though single readings can be large or run the other way. No potency is given beside an inconclusive call; the fits are too rough.
# Experiment: Primary qHTS for delayed death inhibitors of the malarial parasite plastid, 48 hour incubation
# Details: P. falciparum luciferase growth in erythrocytes; series mostly up to 28.7 µM
# Outline: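 First compound was added to culture medium, then infected red cells at 0.1% parasitemia and 2% hematocrit (final). After incubation at 37 C under 5% CO2, luciferase detection reagent was dispensed and light output recorded.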
# Potency is the fitted concentration of half-maximal effect; tags give direction and shape of the fitted curve.
row,Compound,Potency
1,O=C(Cn1c(-c2ccc(Cl)cc2)noc1=O)N1CCN(c2ccccc2F)CC1,active: 11.7 µM
2,CNC(=O)c1ccc(NC(=O)C2CCN(c3ncnc4sc(C)c(C)c34)CC2)cc1,"inconclusive [inhibitor, single point]"
3,O=C(CNC(=S)N(CCCN1CCOCC1)Cc1cccs1)NCc1ccccc1Cl,"inconclusive [inhibitor, partial curve]"
4,O=C(NCc1ccccn1)/C(=C/c1ccco1)NC(=O)c1ccccc1,inactive
5,COc1ccc(N2CCN(C(=O)c3cccc(N4C(=O)C5C6C=CC(C6)C5C4=O)c3)CC2)cc1 (stereo not drawn),active: 10.4 µM
6,C/C(=N\Nc1cccc(Cl)c1)c1ccncc1,inactive
7,Cc1ccc(S(=O)(=O)/N=C(/c2ccc(F)cc2)N2CCOCC2)cc1,"inconclusive [inhibitor, single point]"
8,Cc1nc2cc(-c3ccccc3)nn2c(C)c1CCC(=O)NC(C)c1ccc2c(c1)OCCO2 (stereo not drawn),"inconclusive [inhibitor, partial curve, poor fit]"
9,COC(=O)c1c(NC(=O)Cn2nc(C(F)F)cc2C(F)F)sc(C)c1C,"inconclusive [inhibitor, partial curve, poor fit]"
10,CN(C)c1ccc(P(=O)(OC2CCCCC2)C(O)c2cccnc2)cc1 (stereo not drawn),inactive
11,CSc1nc(Oc2ccc3ccccc3c2)c2sccc2n1,"inconclusive [inhibitor, single point]"
12,CCCCCCCCCCCNC(=O)c1ccoc1C,"inconclusive [inhibitor, partial curve, poor fit]"
13,CC(C)(C)SC(=O)C[C@@H]1NS(=O)(=O)OC2CCCCC21 (stereo partly drawn),inactive
14,CCC(=O)Nc1ccc(Nc2ccccc2)cc1,"inconclusive [inhibitor, single point]"
15,N#C/C(=C/c1cccc([N+](=O)[O-])c1)C(=O)Nc1ccccc1O,inactive
16,CN(/C=C/C(=O)C(F)(F)F)Cc1ccccc1,inactive
17,CC(C)CCC(C)N=Cc1c(O)n(Cc2ccccc2)c(=O)c2ccccc12 (stereo not drawn),"inconclusive [inhibitor, single point]"
18,COc1cccc(C(C)NC(=O)Nc2ccccc2Cl)c1 (stereo not drawn),"inconclusive [inhibitor, single point]"
19,CC1CCC(C(C)C)C(OCC(O)C[N+]2(C)CCCCC2)C1 (stereo not drawn),"inconclusive [inhibitor, full curve, poor fit]"
20,O=[N+]([O-])c1ccc(O)c(/C=N/Nc2nc3ccccc3[nH]2)c1,active: 2.33 µM
21,CCOc1ccc(S(=O)(=O)NCCC(=O)NC2CCN(Cc3ccccc3)CC2)cc1,"inconclusive [inhibitor, single point]"
22,CCC(CC)c1nnc(NC(=O)C23CC4CC(CC(NC(C)=O)(C4)C2)C3)s1,"inconclusive [inhibitor, partial curve, poor fit]"

row,Compound,Potency
1,CC1CC1C(=O)Nc1cc(C(F)(F)F)ccc1N1CCOCC1 (stereo not drawn),"inconclusive [inhibitor, single point]"
2,Cc1cc(C)c(S(=O)(=O)c2c(C)cccc2C)c(Cl)n1,inactive
3,CCN1C(=O)c2ccccc2S(=O)(=O)c2ccc(C(=O)NCc3cccnc3)cc21,"inconclusive [inhibitor, partial curve]"
4,Cc1cc(C)cc(NC(=O)C2CCN(S(=O)(=O)c3ccc4[nH]c(=O)ccc4c3)CC2)c1,"inconclusive [inhibitor, single point]"
5,COc1ccc(C(=O)C(C)[n+]2ccc(C)c3ccccc32)cc1[N+](=O)[O-] (stereo not drawn),"inconclusive [inhibitor, full curve]"
6,Cc1nn(C(C)C(=O)Nc2ccc(Cl)cn2)c(C)c1[N+](=O)[O-] (stereo not drawn),"inconclusive [inhibitor, single point]"
7,CC(C)(C)NC(=O)CCn1nc(-c2ccc(Cl)cc2)c2ccccc2c1=O,"inconclusive [inhibitor, single point]"
8,O=C(O)CCC(=O)N1N=C(c2c(-c3ccccc3)c3cc(Cl)ccc3[nH]c2=O)CC1c1ccco1 (stereo not drawn),"inconclusive [inhibitor, full curve, poor fit]"
9,CCOC(=O)CN1C(=O)S/C(=C\c2ccc(-c3ccc(C(=O)O)c(Cl)c3)o2)C1=O,"inconclusive [inhibitor, partial curve, poor fit]"
10,CCOc1ccccc1NC(=O)/C=C/c1ccc(S(=O)(=O)N2CCOCC2)cc1,active: 4.65 µM
11,Cc1cc(C)nc(-n2nc(C)cc2NC(=O)CN2CCCC(C)C2)n1 (stereo not drawn),"inconclusive [inhibitor, partial curve, poor fit]"
12,Cc1sc(NC(=O)Cc2ccc3c(c2)OCO3)nc1-c1ccc2c(c1)CCN2C(=O)c1ccc(F)cc1,active: 9.28 µM
13,COc1ccc(N2CCOCC2)c(NC(=O)c2cccnc2)c1,"inconclusive [inhibitor, partial curve, poor fit]"
14,Cc1ccc(S(=O)(=O)c2cn(C)c3cc(N4CCOCC4)c(F)cc3c2=O)cc1,inactive
15,COc1ccc(S(=O)(=O)Nc2cc3c4c(c2)CCN4C(=O)CC3)cc1C,"inconclusive [inhibitor, single point]"
16,CCN(CC(=O)NCc1ccccn1)S(=O)(=O)c1ccc(OC)cc1,inactive
17,COc1ccc(OC)c(C(=O)NC(CC(N)=O)c2ccc(N3CCC(N4CCCC4)CC3)c([N+](=O)[O-])c2)c1 (stereo not drawn),inactive
18,CC(C)c1c(O)cc(-c2ccncc2)n(-c2ccc(Cl)cc2)c1=O,"inconclusive [inhibitor, partial curve]"
19,Cn1cc([N+](=O)[O-])c(C(=O)Nc2ccn(Cc3c(F)c(F)cc(F)c3F)n2)n1,inactive
20,CCCCC(=O)Nc1ccc(NC(=S)NC(=O)CC(C)C)cc1OC,"inconclusive [inhibitor, partial curve, poor fit]"
21,Cc1cccc(-c2oc3ccc(-c4ccc5c(c4)OCO5)cc3c2C#Cc2cncn2C)c1,"inconclusive [inhibitor, full curve, poor fit]"
